Measured values taken from the supplement of paper PMC12217912.
Some of the results follow. Sequences were assembled here from the parent chain. Values near 0.05 are background.

B1: TEV protease; numbered along this chain (parent)
chain: MGESLFKGPRDYNPISSSICHLTNESDGHTTSLYGIGFGPFIITNKHLFRRNNGTLVVQSLHGVFKVKDTTTLQQHLVDGRDMIIIRMPKDFPPFPQKLKFREPQREERICLVTTNFQTKSMSSMVSDTSCTFPSGDGIFWKHWIQTKDGQCGSPLVSTRDGFIVGIHSASNFTNTNNYFTSVPKNFMELLTNQEAQQWVSGWRLNADSVLWGGHKVFMVKPEEPFQPVKEATQL

Variants of: B1
Assay: raw area under fraction-flipped curve 0-4 h after induction (AUC4h, not background-subtracted), DNA-recorder readout of cleavage of the substrate (dimensionless); higher = more cleavage of the substrate by the protease variant
Details: temperature: 34 °C; time window: 0-4 h after rhamnose induction
Description: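 In vivo DNA recorder in E. coli TOP10(DE3) ΔrhaA at 34 °C. Each TEVp single-site mutant (parent TEVp 0) is paired with a single-site variant of the 7-mer TEVs (canonical ENLYFQ|S). The substrate sits between flexible linkers in a Bxb1-sfGFP-TEVs-SsrA fusion, so cleavage stabilises Bxb1 and speeds flipping of a recombination array, read by NGS. The value is the raw area under the fraction-flipped curve over 0-4 h after rhamnose induction (AUC4h), with ≥20 reads per time point. It is not background-subtracted; inactive controls average about 0.047.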
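Note: Bxb1 expression induced with 0.2% (w/v) L-rhamnose at OD600 near 0.5, cultures sampled hourly, flipped fraction per protease–substrate barcode pair counted by paired-end Illumina sequencing.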

Row | Variant | area with substrate ENCYFQS | area with substrate ENEYFQS | area with substrate ENFYFQS | area with substrate ENGYFQS | area with substrate ENIYFQS | area with substrate ENRYFQS | area with substrate ENSYFQS | area with substrate ENTYFQS | area with substrate ENVYFQS | area with substrate ENYYFQS
1 | MGESLFKGPRDYNPISSSICHLTNESDGHTTSLYGIGFGPFIITNKHLFRRNNGTLVVQSLHGVFKVKDTTTLQQHLVDGRDMIIIRMPKDFPPFPQKLKFREPQREERICLVLTNFQTKSMSSMVSDTSCTFPSGDGIFWKHWIQTKDGQCGSPLVSTRDGFIVGIHSASNFTNTNNYFTSVPKNFMELLTNQEAQQWVSGWRLNADSVLWGGHKVFMVKPEEPFQPVKEATQL [T114L] | 0.0887 | 0.0634 | 0.0591 | 0.0507 | 0.133 | 0.0563 | 0.0601 | 0.0705 | 0.0954 | 0.0815
2 | MGESLFKGPRDYNPISSSICHLTNESDGHTTSLYGIGFGPFIITNKHLFRRNNGTLVVQSLHGVFKVKDFTTLQQHLVDGRDMIIIRMPKDFPPFPQKLKFREPQREERICLVTTNFQTKSMSSMVSDTSCTFPSGDGIFWKHWIQTKDGQCGSPLVSTRDGFIVGIHSASNFTNTNNYFTSVPKNFMELLTNQEAQQWVSGWRLNADSVLWGGHKVFMVKPEEPFQPVKEATQL [T70F] | 0.0637 | 0.0416 |  | 0.0597 | 0.0801 |  | 0.0572 | 0.0575 | 0.0483 | 
3 | MGESLFKGPRDYNPISSSICHLTNESDGHTTSLYGIGFGPFIITNKHLFRRNNGTLVVNSLHGVFKVKDTTTLQQHLVDGRDMIIIRMPKDFPPFPQKLKFREPQREERICLVTTNFQTKSMSSMVSDTSCTFPSGDGIFWKHWIQTKDGQCGSPLVSTRDGFIVGIHSASNFTNTNNYFTSVPKNFMELLTNQEAQQWVSGWRLNADSVLWGGHKVFMVKPEEPFQPVKEATQL [Q59N] | 0.0667 | 0.0504 |  |  | 0.0997 | 0.0563 |  |  | 0.0952 | 0.0449
4 | MGESLFKGPRDYNPISSSICHLTNESDGHTTSLYGIGFGPFIITNKHLFRRNNGTLVVQSLHGVFKVKDTTTLQQHLVDGRDMIIIRMPKDFPPFPQKLKFREPQREERRCLVTTNFQTKSMSSMVSDTSCTFPSGDGIFWKHWIQTKDGQCGSPLVSTRDGFIVGIHSASNFTNTNNYFTSVPKNFMELLTNQEAQQWVSGWRLNADSVLWGGHKVFMVKPEEPFQPVKEATQL [I110R] | 0.0541 | 0.0604 | 0.0593 | 0.0627 |  |  |  |  | 0.0587 | 
5 | MGESLFKGPRDYNPISSSICHLTNESDGHTTSLYGIGFGPFIITNKHLFRRNNGTLVVQSLHGVFKVKDTTTLQQHLVDGRDMIIIRMPKDFPPFPQKMKFREPQREERICLVTTNFQTKSMSSMVSDTSCTFPSGDGIFWKHWIQTKDGQCGSPLVSTRDGFIVGIHSASNFTNTNNYFTSVPKNFMELLTNQEAQQWVSGWRLNADSVLWGGHKVFMVKPEEPFQPVKEATQL [L99M] | 0.0733 | 0.0442 | 0.0749 | 0.0321 |  | 0.055 |  | 0.0545 | 0.0041 | 
6 | MGESLFKGPRDYNPISSSICHLTNESDGHTTSLYGIGFGPFIITNKHLFRRNNGTLVVQSLHGVFKVKDTTTLQQHLVDGRDMIIIRMPKDFPPFPQKLKFREPQREEKICLVTTNFQTKSMSSMVSDTSCTFPSGDGIFWKHWIQTKDGQCGSPLVSTRDGFIVGIHSASNFTNTNNYFTSVPKNFMELLTNQEAQQWVSGWRLNADSVLWGGHKVFMVKPEEPFQPVKEATQL [R109K] | 0.0469 |  |  |  |  |  | 0.0662 |  | 0.0639 | 
7 | MGESLFKGPRDYNPISSSICHLTNESDGHTTSLYGIGFGPFIITNKHLFRRNNGTLVVQSLHGVFKVKDTTTLQQHLVDGRDMIIIRMPKDFPPFPQKLKFREPQREERIALVTTNFQTKSMSSMVSDTSCTFPSGDGIFWKHWIQTKDGQCGSPLVSTRDGFIVGIHSASNFTNTNNYFTSVPKNFMELLTNQEAQQWVSGWRLNADSVLWGGHKVFMVKPEEPFQPVKEATQL [C111A] | 0.0819 |  | 0.0456 | 0.0516 | 0.0982 |  | 0.062 | 0.0689 | 0.106 | 
8 | MGESLFKGPRDYNPISSSICHLTNESDGHTTSLYGIGFGPFIITNKHLFRRNNGTLVVQSLHGVFKVKDTTTLQQHLVDGRDMIIIRMPKDLPPFPQKLKFREPQREERICLVTTNFQTKSMSSMVSDTSCTFPSGDGIFWKHWIQTKDGQCGSPLVSTRDGFIVGIHSASNFTNTNNYFTSVPKNFMELLTNQEAQQWVSGWRLNADSVLWGGHKVFMVKPEEPFQPVKEATQL [F92L] | 0.0715 |  | 0.0617 |  | 0.101 | 0.0638 |  | 0.0563 | 0.0753 | 
9 | MGESLFKGPRDYNPISSSICHLTNESDGHTTSLYGIGFGPFIITNKHLFRRNNGTLVVQSLHGVFKVKDTTTLQQHLVDGRDMIIIVMPKDFPPFPQKLKFREPQREERICLVTTNFQTKSMSSMVSDTSCTFPSGDGIFWKHWIQTKDGQCGSPLVSTRDGFIVGIHSASNFTNTNNYFTSVPKNFMELLTNQEAQQWVSGWRLNADSVLWGGHKVFMVKPEEPFQPVKEATQL [R87V] | 0.0469 |  | 0.0548 |  |  |  |  |  |  | 
10 | MGESLFKGPRDYNPISSSICHLTNESDGHTTSLYGIGFGPFIITNKHLFRRNNGTLVVQSLHGVFKVKDTTTLQQHLVDGRDMIIIRMPKDFPPFPQKLKFREPQREERICLVTTNFLTKSMSSMVSDTSCTFPSGDGIFWKHWIQTKDGQCGSPLVSTRDGFIVGIHSASNFTNTNNYFTSVPKNFMELLTNQEAQQWVSGWRLNADSVLWGGHKVFMVKPEEPFQPVKEATQL [Q118L] | 0.0686 | 0.0717 |  |  |  |  |  |  |  | 0.0464

Same assay, conditions: temperature: 34 °C; time window: 0-4 h after rhamnose induction

Row | Variant | area with substrate ENDYFQS | area with substrate ENQYFQS | area with substrate ENHYFQS | area with substrate ENNYFQS | area with substrate ENWYFQS | area with substrate ENPYFQS | area with substrate ENMYFQS | area with substrate ENKYFQS
11 | MGESLFKGPRDYNPISSSICHLTNESDGHTTSLYGIGFGPFIITNKHLFRRNNGTLVVQSLHGVFKVKDFTTLQQHLVDGRDMIIIRMPKDFPPFPQKLKFREPQREERICLVTTNFQTKSMSSMVSDTSCTFPSGDGIFWKHWIQTKDGQCGSPLVSTRDGFIVGIHSASNFTNTNNYFTSVPKNFMELLTNQEAQQWVSGWRLNADSVLWGGHKVFMVKPEEPFQPVKEATQL [T70F] | 0.0674 | 0.0537 |  |  |  |  |  | 
12 | MGESLFKGPRDYNPISSSICHLTNESDGHTTSLYGIGFGPFIITNKHLFRRNNGTLVVNSLHGVFKVKDTTTLQQHLVDGRDMIIIRMPKDFPPFPQKLKFREPQREERICLVTTNFQTKSMSSMVSDTSCTFPSGDGIFWKHWIQTKDGQCGSPLVSTRDGFIVGIHSASNFTNTNNYFTSVPKNFMELLTNQEAQQWVSGWRLNADSVLWGGHKVFMVKPEEPFQPVKEATQL [Q59N] | 0.0583 | 0.0739 | 0.0717 |  |  |  |  | 
13 | MGESLFKGPRDYNPISSSICHLTNESDGHTTSLYGIGFGPFIITNKHLFRRNNGTLVVQSLHGVFKVKDTTTLQQHLVDGRDMIIIRMPKDFPPFPQKLKFREPQREERRCLVTTNFQTKSMSSMVSDTSCTFPSGDGIFWKHWIQTKDGQCGSPLVSTRDGFIVGIHSASNFTNTNNYFTSVPKNFMELLTNQEAQQWVSGWRLNADSVLWGGHKVFMVKPEEPFQPVKEATQL [I110R] | 0.0817 |  | 0.0386 | 0.0505 | 0.0586 |  |  | 
14 | MGESLFKGPRDYNPISSSICHLTNESDGHTTSLYGIGFGPFIITNKHLFRRNNGTLVVQSLHGVFKVKDTTTLQQHLVDGRDMIIIRMPKDFPPFPQKMKFREPQREERICLVTTNFQTKSMSSMVSDTSCTFPSGDGIFWKHWIQTKDGQCGSPLVSTRDGFIVGIHSASNFTNTNNYFTSVPKNFMELLTNQEAQQWVSGWRLNADSVLWGGHKVFMVKPEEPFQPVKEATQL [L99M] | 0.0554 | 0.0546 |  |  |  |  |  | 
15 | MGESLFKGPRDYNPISSSICHLTNESDGHTTSLYGIGFGPFIITNKHLFRRNNGTLVVQSLHGVFKVKDTTTLQQHLVDGRDMIIIRMPKDFPPFPQKLKFREPQREEKICLVTTNFQTKSMSSMVSDTSCTFPSGDGIFWKHWIQTKDGQCGSPLVSTRDGFIVGIHSASNFTNTNNYFTSVPKNFMELLTNQEAQQWVSGWRLNADSVLWGGHKVFMVKPEEPFQPVKEATQL [R109K] | 0.0352 | 0.0508 | 0.049 | 0.0735 |  | 0.047 |  | 
16 | MGESLFKGPRDYNPISSSICHLTNESDGHTTSLYGIGFGPFIITNKHLFRRNNGTLVVQSLHGVFKVKDTTTLQQHLVDGRDMIIIRMPKDFPPFPQKLKFREPQREERIALVTTNFQTKSMSSMVSDTSCTFPSGDGIFWKHWIQTKDGQCGSPLVSTRDGFIVGIHSASNFTNTNNYFTSVPKNFMELLTNQEAQQWVSGWRLNADSVLWGGHKVFMVKPEEPFQPVKEATQL [C111A] |  |  | 0.0465 |  |  |  | 0.0563 | 
17 | MGESLFKGPRDYNPISSSICHLTNESDGHTTSLYGIGFGPFIITNKHLFRRNNGTLVVQSLHGVFKVKDTTTLQQHLVDGRDMIIIRMPKDLPPFPQKLKFREPQREERICLVTTNFQTKSMSSMVSDTSCTFPSGDGIFWKHWIQTKDGQCGSPLVSTRDGFIVGIHSASNFTNTNNYFTSVPKNFMELLTNQEAQQWVSGWRLNADSVLWGGHKVFMVKPEEPFQPVKEATQL [F92L] | 0.0769 | 0.0613 |  | 0.071 | 0.0658 |  |  | 0.0646
18 | MGESLFKGPRDYNPISSSICHLTNESDGHTTSLYGIGFGPFIITNKHLFRRNNGTLVVQSLHGVFKVKDTTTLQQHLVDGRDMIIIVMPKDFPPFPQKLKFREPQREERICLVTTNFQTKSMSSMVSDTSCTFPSGDGIFWKHWIQTKDGQCGSPLVSTRDGFIVGIHSASNFTNTNNYFTSVPKNFMELLTNQEAQQWVSGWRLNADSVLWGGHKVFMVKPEEPFQPVKEATQL [R87V] | 0.0673 | 0.0582 |  |  |  |  |  | 
19 | MGESLFKGPRDYNPISSSICHLTNESDGHTTSLYGIGFGPFIITNKHLFRRNNGTLVVQSLHGVFKVKDTTTLQQHLVDGRDMIIIRMPKDFPPFPQKLKFREPQREERICLVTTNFLTKSMSSMVSDTSCTFPSGDGIFWKHWIQTKDGQCGSPLVSTRDGFIVGIHSASNFTNTNNYFTSVPKNFMELLTNQEAQQWVSGWRLNADSVLWGGHKVFMVKPEEPFQPVKEATQL [Q118L] | 0.0624 |  |  |  | 0.0469 | 0.0554 |  | 
